Assay results from the RNAGym collection of RNA variant scans (doi:10.1093/nar/gkz1192).
The source gives no read counts; variants with many changes may rest on few reads.

B1: CPEB3 Ribozyme (parent)
chain: UAACAGGGGGCCACAGCAGAAGCGUUCACGUCGCAGCCCCUGUCAGAUUCUGGUGAAUCUGCGAAUUCUGCUGUAUAUCUC

Variants of: B1
Experiment: self-cleavage, relative activity (ratio to wild type); higher = more cleavage; in vitro, sequencing
Procedure, shortened: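 Relative activity compares each variant's cleaved/total read fraction with that of the unmutated ribozyme. To get these fractions, barcoded CPEB3 ribozyme libraries from rounds of error-prone PCR were transcribed with T7 RNA polymerase for 5 hours at 37°C and then given 15 min of DNase I treatment before EDTA was added. The RNAs were reverse transcribed with template switching and sequenced on Illumina, and DNA sequencing linked barcodes to variants. A minimum of 5 reads applied, and three batches were averaged.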
Variant UAACAGGGGGCCACAGCAGAAGCGUUCACGACGCAGCCCCUGUCAGAUUCUGGUGAAUAUACGAAUUCUGCUGUAUAUCUC has a self-cleavage of 0.12.
With UAACAGGGGGCCACAGCAGAAGCGUUCACGACGCAGCCCCUGUCAGAUUCUGGAGAAUCAGCGAAUUCAGCCGUACAUCAC the self-cleavage was 0.15.
With UAACAGGGGGCCACAGCAGAAGCGUUCACGACGCAGCCCCUGUCAGACUCUGGUGAAUCUGCGAAUUCUGCUGUAUAUCCC the self-cleavage was 0.54.
With UAACAGGGGGCCACAGCAGAAGCGUUCACGACGCAGCCCCUGUCAGAUUCCGGUGAAACUGCGAAUUCUGCUGUAUAUCUC the self-cleavage was 0.19.
With UAACAGGGGGCCACAGCAGAAGCGUUCACGACGCAGCCCCCGUCAGAUUCCGGUGAAUCUGCGAAUUCUGCUGUAUAUCUC the self-cleavage was 0.29.
Variant UAACAGGGGGCCACAGCAGAAGCGUUCACGACGCAGCCCCUGUCAGAUUCUGGUGAAUCUGCGAGUCCUGCUUUAUACCUC has a self-cleavage of 0.09.
Variant UAACAGGGGGCCACAGCAGAAGCGUUCACGACGCAGCCCCUGUCAUAUUCUGGCGAAACUGCGAAUUCUGCCGUAUAUCUC has a self-cleavage of 0.08.
In the case of UAACAGGGGGCCACAGCAGAAGCGUUCACGACGCAGCCCCCGUCAGACUCUGGUGAACCUGCGAAUGCUGCUGUAUAUCUC, the self-cleavage is reported as 0.03.
Work on UAACAGGGGGCCACAGCAGAAGCGUUCACGACGCAGCCCCCGUCGGAUUCUGGUGAAUCUGCGAAUUCUGCUGUAUAUCUC yielded a self-cleavage of 0.36.
Variant UAACAGGGGGCCACAGCAGAAGCGUUCACGACGUAGCCCCAGUCAGAUUCUGGUGAAUCUGCGUAUUCUGCUGUAUAUCUC has a self-cleavage of 0.09.
With UAACAGGGGGCCACAGCAGAAGCGUUCACGACGGAGCCCCUGUCAGAUUCUGGUGUAUCUGCGAAUUCUGCUGUAUAUCUC the self-cleavage was 0.12.
Work on UAACAGGGGGCCACAGCAGAAGCGUUCACGACGCAGCCCCAGUCAGAUUCUGGCGAAUCUGCGAAUUCUGCUGUAUAUCUC yielded a self-cleavage of 0.17.
Work on UAACAGGGGGCCACAGCAGAAGCGUUCACGACGCAGUCCCUGUCAGAUCCUGGUGAAUCUGCGAAUUCUGCAGUAUACCUC yielded a self-cleavage of 0.06.
UAACAGGGGGCCACAGCAGAAGCGUUCACGACGCAGCCCCUGUCAGAUUCUGGUGAAUCUGCGUAUUCUGCUGUAUGUCUC showed a self-cleavage of 0.09.
UAACAGGGGGCCACAGCAGAAGCGUUCACGACGCAGCCCCUAUCAGAUUCUGCUGAAUCUGCGAAUUCUGCCGUAUAUCCC gave a self-cleavage of 0.28.
For UAACAGGGGGCCACAGCAGAAGCGUUCACGACGCAGCCCCUGCCAGAUGCUGCUGAAUCUGCGAAUUCUGCUGUAUAUCUC, the self-cleavage was 0.1.
UAACAGGGGGCCACAGCAGAAGCGUUCACGACACAGCCCCUGUCAGAUUCAGGUGAAUCUGCGAAUUCUGCUGUAUAACUC gave a self-cleavage of 0.18.
Variant UAACAGGGGGCCACAGCAGAAGCGUUCACGAAGUAGCCCCGGUCAGAUUCUGGUGAAUCUGCGAAUUCUGCUGUAUAUCUC has a self-cleavage of 0.1.
UAACAGGGGGCCACAGCAGAAGCGUUCACGACGCAGCCCCUGUCAGACUCCGGUGAAUCCGCGAAUUCUGCUGUAUAUCUC showed a self-cleavage of 0.07.
With UAACAGGGGGCCACAGCAGAAGCGUUCACGACGCAGCCCCCGUCAGAUUCUGAUGAAUCUGCGAAUUCUGCUGUAUAUCUC the self-cleavage was 0.32.
In the case of UAACAGGGGGCCACAGCAGAAGCGUUCACGACGCAGCCCCUGUCAGAUUCUGGUGAAUCUGCGGAUUCUGCUGUAUAUCCC, the self-cleavage is reported as 0.41.
Variant UAACAGGGGGCCACAGCAGAAGCGUUCACGACGCAGCCCCUAUCAGACUCCGGUGAAUCUGCGAAUUCUGCUGAAUAUCUC has a self-cleavage of 0.08.
Variant UAACAGGGGGCCACAGCAGAAGCGUUCACGACGCAGCCCCUGUCAGAUUUUGGUGAAUCUGUGAAUUCUGCUGUAUAUCUC has a self-cleavage of 0.19.
In the case of UAACAGGGGGCCACAGCAGAAGCGUUCACGACGCAUCCCCCGUCAGAUUCUGGCGAAUCGGCGAAUUCUGCUGUAUAUCCC, the self-cleavage is reported as 0.09.
UAACAGGGGGCCACAGCAGAAGCGUUCACGAUGCAGCCCCUGUCAGAUUCUGGUGAAUCUGCGAAUUCCGCUGUAUAUCUC showed a self-cleavage of 0.37.
Variant UAACAGGGGGCCACAGCAGAAGCGUUCACGACGCAGCCCCUGUCAGAUUCUCGUGAAUCUGCGAAUUCUGCCGUACAUCUC has a self-cleavage of 0.92.
With UAACAGGGGGCCACAGCAGAAGCGUUCACGACGCAGCCCCUGACGGAUGCUGGUAAAUCUGCGAAUUCUGCUGUAUAUCUC the self-cleavage was 0.14.
In the case of UAACAGGGGGCCACAGCAGAAGCGUUCACGACGCAGCCCCUGUCAGACUCGGGUGAAUCUGCGGAUUCUGCUGUAUACCUC, the self-cleavage is reported as 0.07.
For UAACAGGGGGCCACAGCAGAAGCGUUCACGACGCAGCCCCUGUCAGAUUCUGGAGAAUCUGCGAUUUCUGCUGUAUCUCUC, the self-cleavage was 0.12.
Variant UAACAGGGGGCCACAGCAGAAGCGUUCACGACGCAGCCCCGGUCGGAUUCUGGUGAAUCUGCGAAUUCUGCUGUAUAUCUC has a self-cleavage of 0.13.
Work on UAACAGGGGGCCACAGCAGAAGCGUUCACGACGCAGCCCCUGUCAGAUCCUGGUGAAUCUACGAAUUCUGCUGUAUAUCUC yielded a self-cleavage of 0.13.
For UAACAGGGGGCCACAGCAGAAGCGUUCACGACGCAUCCCCUGUCAGAUUCCGGUGAAUCCGCGAAUUCUGCUGUAUAUCUC, the self-cleavage was 0.08.
Variant UAACAGGGGGCCACAGCAGAAGCGUUCACGACGCAGCCGCUGUCAGUUUCUGGUGAAACUGCGAAUUCUGCUGUAUUUCUC has a self-cleavage of 0.06.
For UAACAGGGGGCCACAGCAGAAGCGUUCACGACGCAGCUACUGUCAGAUUCUGGUGAAUCUGCGAAUUCCGCUGUAUAUCUC, the self-cleavage was 0.18.
With UAACAGGGGGCCACAGCAGAAGCGUUCACGACGCAGCCCCUGUCAGAUUCUGGUGAAUCUGCGGAUUCUGCUGGAUAUCUC the self-cleavage was 0.85.
Work on UAACAGGGGGCCACAGCAGAAGCGUUCACGACGAAGCCCCUGUCAGAUUCUGGCGUACCUGCGAAUUCUGCUGUAUAUCUC yielded a self-cleavage of 0.16.
UAACAGGGGGCCACAGCAGAAGCGUUCACGACGCAGCCCCUGUCAGAUUCCGGUGGAUCUGCGAAUUCUGCUGUAUACCUC showed a self-cleavage of 0.46.
Variant UAACAGGGGGCCACAGCAGAAGCGUUCACGACGCAGCCCCUGUCAGAUUCUGGAGAAUCUGCGAAUUCCGCCGUAUAUCCC has a self-cleavage of 0.13.
For UAACAGGGGGCCACAGCAGAAGCGUUCACGACGCAGCCCCUGUCAGAUCCUGGCGAAUCUGCGAACUCUGCCGUAUAUCUC, the self-cleavage was 0.09.
Work on UAACAGGGGGCCACAGCAGAAGCGUUCACGACACAGCCCCUGUCUGAUUCUGGUGAAUCUGCGAAUUCUGCUGUAUAUCUC yielded a self-cleavage of 0.16.
UAACAGGGGGCCACAGCAGAAGCGUUCACGACGCAGCCCCAGUCAGAUCCUGGUGAAUCUGCGAAUUCUGCCGUAUAUCUC showed a self-cleavage of 0.16.
Variant UAACAGGGGGCCACAGCAGAAGCGUUCACGACGCAGCCCCUGUCAGAUUCCGGUGAGUCUGCGAAUUCUGCCGUAUAUCUC has a self-cleavage of 0.35.
UAACAGGGGGCCACAGCAGAAGCGUUCACGACGCAGCCCCCGUCAGAUUCUGGCGAAUCUGCGAAUUCUGCUGUAUGUCUC gave a self-cleavage of 0.58.
UAACAGGGGGCCACAGCAGAAGCGUUCACGACGCAGCCCCUGUCAGAUUCAGGUGAAUCUGCGAAUUCUGCUGUACAUCUC gave a self-cleavage of 0.66.
With UAACAGGGGGCCACAGCAGAAGCGUUCACGACGCAGCCCCUGUCAGAUUCUGAUGAAUCUGCGAUUUCUGCUGUAUAUCUC the self-cleavage was 0.18.
UAACAGGGGGCCACAGCAGAAGCGUUCACGACGCAGCCCCCGUCAGAUUCUGGUGGAUCUGCGAAUUCUGCUGUACAACUC gave a self-cleavage of 0.3.
With UAACAGGGGGCCACAGCAGAAGCGUUCACGACGCAGCCCCUGCUAGAGUCUGGUUAAUCUGCGAAUUCUGCUGUAUAUCUC the self-cleavage was 0.18.
With UAACAGGGGGCCACAGCAGAAGCGUUCACGACGCAGCCCCAGUCAGAUUCUGGUGAAUCCGCGAAUUCUGCUGUAUAUCUC the self-cleavage was 0.19.
UAACAGGGGGCCACAGCAGAAGCGUUCACGACGCAACCCCUGUCAGAUUCUGGUGAAUCCGCGAAUUCUGCCGUAUAUCUC showed a self-cleavage of 0.16.
Work on UAACAGGGGGCCACAGCAGAAGCGUUCACGACGCAGCCCCUGUCAGAUUCCGGUGAAUCUGCGAAUUCUGCUGUAAAUCUC yielded a self-cleavage of 0.57.
UAACAGGGGGCCACAGCAGAAGCGUUCACGACGCAGACCCUGUCAGGUUCUGGUGGAUCUGCGUAUUCUGCUGUCUAUCCC showed a self-cleavage of 0.09.
With UAACAGGGGGCCACAGCAGAAGCGUUCACGACGCAGCCCCUGUCAGAUUCAGGUGAAUCUGCGAAUUCUGCUGUAUAUCUU the self-cleavage was 0.52.
UAACAGGGGGCCACAGCAGAAGCGUUCACGACGCAGCCCCGGUCAGACUCUGGUGAAUCUGCGAAUCCUGCUGUAUAUCUC gave a self-cleavage of 0.05.
In the case of UAACAGGGGGCCACAGCAGAAGCGUUCACGACGCAGCCCCUGUCAGAUUCUGGCGAACCUGCGAACUCAACUGUAUAUCUC, the self-cleavage is reported as 0.12.
UAACAGGGGGCCACAGCAGAAGCGUUCACGACGCAGCCCCUGUCAGAUUCAGGUGGAUCAGCGAAUUCUGCUGUAUAUCUC gave a self-cleavage of 0.2.
With UAACAGGGGGCCACAGCAGAAGCGUUCACGACGCAGCCCCUGUUGGAUUCUGGUGACUCUGCGAAUUCUGCUGUAUAUCUC the self-cleavage was 0.07.
With UAACAGGGGGCCACAGCAGAAGCGUUCACGAUGCAGCCCCUGUCAGAUUCUGGUGAAUCUGCGAAAUCUGCUGUAUGUCUC the self-cleavage was 0.1.
Variant UAACAGGGGGCCACAGCAGAAGCGUUCACGACGCAGCCCCUGUCAGAUCCUGGUGAACCUGCGAAUUCGGCUGUAUAUCUC has a self-cleavage of 0.16.
UAACAGGGGGCCACAGCAGAAGCGUUCACGACGCAGCCCCUGUCAGAUUCUGGCGAAUCUCCGUGUUCUGCUGUACAUCUC showed a self-cleavage of 0.06.
With UAACAGGGGGCCACAGCAGAAGCGUUCACGAAGCAGCCCCUGUCAGAUUCUGGUGAAUCUGCGGAUUCUGCUGUAUAUCUA the self-cleavage was 0.07.
In the case of UAACAGGGGGCCACAGCAGAAGCGUUCACGACGCAGCCCCGGUCAGAUUCUGGUGAAUCAGCGAACCCUGCUGAAUAUCUC, the self-cleavage is reported as 0.08.
UAACAGGGGGCCACAGCAGAAGCGUUCACGAUGCAGCCCCUGUCAGAUUCUGGUGAAUCUGCGGAUUCUGCUGUAUAUCUC gave a self-cleavage of 0.44.
Work on UAACAGGGGGCCACAGCAGAAGCGUUCACGACGCAGCCCCCGUCAGAUUCUGGUGAAUCUGCGAACUCUGCUGUAUAUCUC yielded a self-cleavage of 0.68.
For UAACAGGGGGCCACAGCAGAAGCGUUCACGACGUAGCCCCUGUCAGAUUCAGGUGAAUCUGCGAAUUCUGCUGUAUAUCUC, the self-cleavage was 0.59.
For UAACAGGGGGCCACAGCAGAAGCGUUCACGACGCAGCCCCUGCCAGAUACUGGUGAAUCUGCGAAUUCUGCUGUAUAUCUC, the self-cleavage was 0.24.
UAACAGGGGGCCACAGCAGAAGCGUUCACGACGCAGCCCCUGUCAGAUUCGGGUGAAUCCGCGAAUUCUGCUGUAUAUCUC gave a self-cleavage of 0.09.
UAACAGGGGGCCACAGCAGAAGCGUUCACGACGCAGCCGUUGUCAGAUUCUGGUGAAUCUGCGGAUUCGGCUGUAUAUCUC gave a self-cleavage of 0.07.
Work on UAACAGGGGGCCACAGCAGAAGCGUUCACGACGCAGCCCCUGUCAGAUUCUGGAGAAUCUGCGAAUUCAGCUGUAUAUCUC yielded a self-cleavage of 0.22.
